The values below come from the supplement of paper PMC10681739.

Over roughly 4,100 sequences, “arbitrary fluorescence units” has its median near 780; the highest 2% begin near 22,000. The list shows a part of the results.

The target of the assay is T1, ETS1 (UniProt P14921).
T1 sequence: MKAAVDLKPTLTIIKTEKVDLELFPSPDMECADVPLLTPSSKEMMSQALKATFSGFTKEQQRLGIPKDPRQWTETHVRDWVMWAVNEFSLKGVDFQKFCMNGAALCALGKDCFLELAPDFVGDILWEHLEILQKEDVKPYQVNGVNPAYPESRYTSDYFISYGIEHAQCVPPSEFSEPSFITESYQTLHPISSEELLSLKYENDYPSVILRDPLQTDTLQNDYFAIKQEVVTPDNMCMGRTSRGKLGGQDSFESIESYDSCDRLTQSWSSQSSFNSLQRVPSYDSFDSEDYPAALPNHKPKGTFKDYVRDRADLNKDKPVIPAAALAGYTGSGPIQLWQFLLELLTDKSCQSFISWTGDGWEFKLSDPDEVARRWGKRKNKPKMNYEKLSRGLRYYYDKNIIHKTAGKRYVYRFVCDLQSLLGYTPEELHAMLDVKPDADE
As to the kind of experiment: ETS1 binding intensity (PBM fluorescence), ETS1 alone (arbitrary fluorescence units); higher = stronger binding. The following applies: ETS1 concentration 1 nM; RUNX1 concentration 0 nM. How it is done: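 gcPBM on 36-bp genomic-derived probes (partner site mutated) containing one ETS1 site and no RUNX1 site. Recombinant human ETS1 (1 nM) was incubated alone or with RUNX1 (25 nM) and detected by anti-ETS1 antibody fluorescence. Values are medians over 4 replicate spots (not normalised). The probes sit in constant array flanks that are not printed.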
For TTTCTCTGGCTGGACAGTTGGAGAAATGAGGAAGTT, the ETS1 binding intensity turned out to be 373.
Sequence GAAATCACACCAGCAAGCTTAAGTACAGGAAGAATA returned an ETS1 binding intensity of 424.
TCAAGTGTTTATCACTGGGTCACCAGGAAGTGGCTT registered an ETS1 binding intensity of 514.
For AAGACCGGCCGTAAACCAGCAAGATGGCGTCCGGCC, the ETS1 binding intensity stood at 340.
Regarding ATTTGGCGCCCGCCGTAAAGCGCGGATGCGCGGCGT, the ETS1 binding intensity was 357.
The figure for ACAGTCGCACCGGAAGCTGCCCGAGGTGTTGACACA is 9810; for TCATTGGGGTTTCTGAAGCACACAGGAAGTCAGAAA it is 1890.
The same measure for TCGCATATGGCTCTGGGAGGAGGAAGGGAGGCCCAG: 341.
The figure for TCGGGGAAAGAGCGCTTCAGGTGCTTCCGTCGCTCC is 428; for CATCTACTGAGGAAGTGTAAGCTACAATAAGAAGCC it is 560; for TACCAACAGGAATCTTTGGGGTCTAAACAGCAAACA it is 435.
The sequence GATGTAGGTAAGAGAAGCAGGCACAGGATGCTGCCC showed an ETS1 binding intensity of 432.
With TGTGGCCAGCACGGAAGAGCCCCACCAGATGTGCTT, the ETS1 binding intensity was 378.
The same measure for TGAGAAAACAGGAAGCGCCCAGTCACCAGAGAAAGC: 6320; for GCTTTGCAGTTTCCTCTGTGGAACACCAGACACAGT: 2430; for CTCTACTGCAGGCTGGCTAATCTTCGGAAACAAACA: 428.
The same measure for AGGCTTGGGGCTAGACCAGGGTCTTCCTGCTGAAGA: 412; for ATGGGGTTGGGGCGGGAGCGTGCGTCCTTCCTGTGT: 826; for TTCTTCCCCCTTCCGGTCGCTGAGTGGATGAGGCCG: 16600.
The figure for CTGTGACTTTTGGGGTGGGGGAGGAAGAAGAGAGGG is 816; for CTCTGAACTTCCTCTCTTTTAACTACAACTTACTAC it is 4200.
GAAGATGCTGTCGTTGCATAGAGGAGGATATGAATC: the ETS1 binding intensity was determined as 412.
The same measure for CCAGGAAGTTCAAACTGGGTGGAGCCCACCCCAGCT: 469.
On to CCCGGCCACTTCCGCCTATTGAGGGCGTCGGCTAGG, for which the ETS1 binding intensity turned out to be 18600.
The figure for CCCTCCTGGGGTATTGGAGACCGGAAGCACATAGTC is 3540.
Regarding AAAGCAAACAGGAAGTGCTGTGATAACAAGGCCCCA, the ETS1 binding intensity is 12800.
The same measure for AGGAGCCCACCCTCAGAGCTGTGATTTCCTGACTCG: 419; for GTGGGTAGGGAGGAAGCTGTGAAAGCACCTCCCCTC: 648.
ATTTTAGCATTTTCCTGCTCGGAGACAACATGTTTG gave an ETS1 binding intensity of 1170.
GCCCCGCCCCCGGACGCCCAGCCGCTGTCCCAGCGA: the ETS1 binding intensity amounted to 358.
On to ATAACTCGCGGCAAATGCTGGAGGAAGTACCGCCTT, for which the ETS1 binding intensity is 376.
As to TGAAAGCTCAGATATCTGGCCACCAGGAAATGCTGT, the ETS1 binding intensity turned out to be 375.
With AAAACAACTTCCTTCCCCTCTCTCTCCACCAGAGTC, the ETS1 binding intensity amounted to 3870.
CGGGGCGAAAGCACTGTTGGCTCATTTCCGGGTGGG had an ETS1 binding intensity of 1500.
As for AAGAGGAAGTCCCAAATTGCTTTTTATCCACCAACA, the ETS1 binding intensity is 764.
GTTTATGGCAGGAAAGCCTGATAACCTACAAACCCT registered an ETS1 binding intensity of 412.
For the sequence TCGTGAAAAAGGAAGTGGATAAAGTGGCTACGGCAA, the ETS1 binding intensity was determined as 3240.
On to GCGCGGCCTGCAGCGCCACACAGTTTCCCGGGCGCC, for which the ETS1 binding intensity is 323.
The figure for GTCGCCTTCGGTGACTCAGCTCTTCCGGTCACCGCC is 5110; for AGGGTTTGTAGGTTATCAGGCTTTCCTGCCATAAAC it is 507.
The same measure for TGGAAGGCCGGAAAAGGTTTACCTCCACACTCCGGT: 2100; for CAAGCCAGGAAGAGGGCCCTCACCAGAAACAGCACT: 663; for GCCACGGTGGCTGCTATTTCTGCCGCTTCCTGTTCC: 988.
Regarding GGGGTGCTGTTTAGGGCGGGTTTTTTCCGCCTTGGA, the ETS1 binding intensity is 427.
The figure for CATTTCACGTTCCGCTGACTTTCTCTGGGGCCCCAA is 478.
The figure for TAGGCTCCCGAGGTTCGGCCTTCCTCCCTCTGTGAC is 330; for CTTACCTACAGTTCCGCTTGCTGTGATTTCAGTTAC it is 1240; for GGGGCTTGCTGCCGCTGAGCCGCCTTCCGCCCTCCC it is 506.
The same measure for CCCTCGGTGCTCGCCGCTGAGAGCTTTCCGGCCACG: 421; for CTGGGCCTCCCTTCCTCCTCCCAGAGCCATATGCGA: 566.
GTAGCCGATTTCCGATTGCCCGGCGCAGCTCCACCA displayed an ETS1 binding intensity of 3790.
The same measure for GCCCGCGGCTCCGGAAGCGGCTGCAGCCCCGACCGG: 2160.
The same measure for GGGGAGGACGCGGAAGAGGAGCTGAGGGAAGGGGGA: 873; for GCCCCTCTTCCTGACTCACACAGCCGCCTCTAGTCT: 2110.
The figure for GGCCGCCGCTTCCCGTCCAGGGCCGTAGTCTGCCCG is 2450; for GTGCCTTGTAGTCAGGTGGCTGGGCAGGATGTTTCT it is 438; for GCCGGACCCTTCGGCCCCGGGACCGGACACCAGGCG it is 344.
In turn, GAGCCGGAAGTGAAGGAGGGCTTCTGGGAGATGGAG had an ETS1 binding intensity of 9320.
The same measure for CACTTGGTCTTCCTGCCCTTGGGGCCCTAACACCCT: 2540; for ACTGTGCGTTGGGGTCGTCCGCCATCCGCTGCAGCT: 403.
For GCCCCACTTAGCGGCTGCGGATGAGCACGATGCGCA, the ETS1 binding intensity was found to be 302.
The same measure for TTTTTGGTCTCATGGAAAGAGCACAGGATGCAGAAT: 480.
The figure for ACAAGGAAACATTCAGAGGTTTTTAAGGTCAGGATT is 366; for GAGGAGGAAGTGCGCTGGCTGTTCTGCTGCAGGCCG it is 1320; for GGAGAAATCGCAACTCGGAACTACGGAAACGGAGGA it is 516.
The figure for ATGGTCCAGGAAGATAAGGGCTGAAAAGCACCCACT is 393; for CGTCCAGCAGCAAGGGAGAGCAGTTTCCTCCAGTGC it is 406; for GCGTTCCGCTGGTCGTGGGCTTTCAGCGCCCGCTGA it is 380.
Turning to CATGATGGAAAGCACCACCAGCACTTCCGGCCCTGG, the ETS1 binding intensity is 7320.
For the sequence AGATGGGCATCCTGTGAGCCTGGGGTTCTCAGCATT, the ETS1 binding intensity is 2760.
In turn, ATCGGCGGTCCCCCAGGTCCCGGATGTCGCGGACAG returned an ETS1 binding intensity of 1030.
The same measure for GGAGGGGCTGGCCGGAAGTGAACCGAAGAGCACGCT: 16700; for GAGACTTTCGCTTCCGGCTGCCGTAGGCGCTTCGCT: 9940; for TATATGTGACTTCTTATTGTGACTTACACTTCCTCA: 567.
AGCAAAAAGTTCCGGGGAAGCCGAGACCTCGACCTT showed an ETS1 binding intensity of 753.
The figure for CAACTCCGGCGCCCTCAGGCCACTTCCGCCTATGTA is 4590; for AGCTGTTTGTAGTTGTCACACCTAGTTTCCTCTGTC it is 574.
Turning to TTGATAGCAAACTACACTCGGCACAGGAAGGAGAAC, the ETS1 binding intensity came to 490.
TGCGCCGGGAGGAAGGGCTCCAAAACTACAGGGCGG: the ETS1 binding intensity is 362.
The sequence GTTTGGTGTCGTTGCAGTACAGGATGCATAGTGAAG registered an ETS1 binding intensity of 764.
